Columns and labels:
SPT5 = SPT5 (human, UniProt O00267); assay: cryo-EM structure; INTAC-PEC assembled from purified human INTAC, NELF, DSIF, S. scrofa Pol II and a DNA-RNA scaffold; gradient fixation (GraFix); map at 4.2 Å, subcomplexes at 3.5-3.8 Å by focused refinement; earlier structures of INTAC and PEC fitted into the maps; details: both partners purified
INTS9 = molecular target: T1, INTS9 (human, UniProt Q9NV88); assay: as above; details: both partners purified
T1 construct: Integrator complex subunit 9 (INTS9), human; source: subunit of purified human INTAC (Zheng et al., 2020)

B1: INTS11 (enzyme)
chain: not shown
notes: Integrator complex subunit 11 (INTS11), human; RNA endonuclease; source: subunit of purified human INTAC (Zheng et al., 2020)
binding result (SPT5): binds | binding result (INTS9): binds
